Literature values as cited in patent US4701406A, “Assay for the detection of epigenetic toxic (non-genotoxic) substances” (priority 1984, dated 1987).

Conditions: Table I; recognized by U.S. Department of Health and Human Services; cited from earlier work

O=[As][O-].[Na+] [As(III) as NaAsO2, NaAsO2]
Health Hazardous Activity (carcinogen / promoter): carcinogen
